# Test results from article PMC4336329 (PLoS ONE, 2015).
# Screen size: about 310,000 compounds; about 2,200 (0.71%) showed an effect of 50% or more. The effect is printed as a negative number. Some of the results follow.
# Target: human ether-à-go-go-related gene (hERG) potassium channel (human, UniProt Q12809)
# Experiment: primary screen, population patch clamp on CHO cells stably expressing hERG
# human ether-à-go-go-related gene (hERG) potassium channel, sequence (Q12809 whole entry, looked up): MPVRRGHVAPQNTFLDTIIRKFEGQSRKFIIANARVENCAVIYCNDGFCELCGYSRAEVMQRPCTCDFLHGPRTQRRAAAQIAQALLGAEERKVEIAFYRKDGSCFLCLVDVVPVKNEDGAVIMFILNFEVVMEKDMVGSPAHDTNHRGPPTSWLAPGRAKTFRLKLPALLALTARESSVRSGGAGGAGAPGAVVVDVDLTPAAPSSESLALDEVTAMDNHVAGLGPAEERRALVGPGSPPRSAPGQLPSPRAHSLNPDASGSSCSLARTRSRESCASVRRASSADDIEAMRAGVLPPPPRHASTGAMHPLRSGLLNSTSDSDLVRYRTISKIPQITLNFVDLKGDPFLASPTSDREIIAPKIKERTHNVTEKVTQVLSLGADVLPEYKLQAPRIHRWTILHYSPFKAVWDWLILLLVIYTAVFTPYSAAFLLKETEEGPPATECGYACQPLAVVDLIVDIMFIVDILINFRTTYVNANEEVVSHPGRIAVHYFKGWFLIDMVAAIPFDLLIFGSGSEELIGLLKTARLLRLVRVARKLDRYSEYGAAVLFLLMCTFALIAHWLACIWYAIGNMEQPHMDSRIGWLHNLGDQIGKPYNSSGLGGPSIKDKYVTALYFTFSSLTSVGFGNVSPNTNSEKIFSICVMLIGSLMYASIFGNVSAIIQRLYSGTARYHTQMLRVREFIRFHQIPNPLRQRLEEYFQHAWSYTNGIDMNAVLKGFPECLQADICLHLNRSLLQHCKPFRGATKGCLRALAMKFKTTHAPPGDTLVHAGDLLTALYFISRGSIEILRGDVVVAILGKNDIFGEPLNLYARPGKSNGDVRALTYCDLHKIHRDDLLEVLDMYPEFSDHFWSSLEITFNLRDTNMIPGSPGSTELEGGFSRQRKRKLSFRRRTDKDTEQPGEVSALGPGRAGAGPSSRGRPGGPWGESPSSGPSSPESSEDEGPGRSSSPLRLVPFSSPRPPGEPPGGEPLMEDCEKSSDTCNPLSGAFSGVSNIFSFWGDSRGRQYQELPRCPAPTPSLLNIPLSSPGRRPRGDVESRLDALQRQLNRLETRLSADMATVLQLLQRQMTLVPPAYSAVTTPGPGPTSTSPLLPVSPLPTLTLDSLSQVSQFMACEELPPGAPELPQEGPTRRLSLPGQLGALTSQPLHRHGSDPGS
row,SMILES,"hERG current change (%, negative = inhibition) at 1uM"
1,Cc1sc(NC(=O)CCCCC(=O)Nc2sc(C)c(C)c2C(=O)O)c(C(=O)O)c1C,4.53%
2,O=C(NCCc1ccccc1)c1ccnc(/C=N/O)c1,-2.66%
3,COc1ccc(N2CCN(S(=O)(=O)c3c[nH]c(=O)[nH]c3=O)CC2)cc1,16.8%
4,CCC(C)NC(=O)CSc1nc2c(sc(=S)n2-c2cc(Cl)ccc2OC)c(=O)[nH]1 (stereo not drawn),13.6%
5,Cc1ccc(N(C(=O)c2ccccc2Cl)C2=NC(C)CS2)c(C)c1 (stereo not drawn),9.22%
6,O=C(Nc1ccc(Br)c(Cl)c1)C1CC1,2.32%
7,O=C(CSc1ccc2ccccc2c1)Nc1nc2ccccc2[nH]1,6.91%
8,CCN(CC(=O)NCc1ccc(Cl)cc1)C(=O)Cc1ccccc1[N+](=O)[O-],-29.5%
9,COc1ccccc1C(=O)Nc1ccnn1C1CCN(Cc2ncc[nH]2)CC1,6%
10,O=C(CCc1nnc(CCc2ccccc2)o1)NC(c1cccnc1)C(F)(F)F (stereo not drawn),-0.569%
11,COc1ccc(CNC(=O)N2CCN(c3ccccc3)CC2)cc1,14.9%
12,Cc1ccccc1OCCCN1CCOCC1,10.1%
13,COc1ccc(/C=c2\sc3nc(=O)c(C)nn3c2=O)c(OC)c1,15.2%
14,Cc1cc(NC(=O)CCCn2nc([N+](=O)[O-])cc2C)no1,10.8%
15,CSCCC(NC(=O)COc1ccccc1)C(=O)OCC(=O)c1cc2ccccc2o1 (stereo not drawn),14.2%
16,CC(C)NC(=O)CNc1ccc(C(F)(F)F)cc1[N+](=O)[O-],12.3%
17,Cl.Clc1ccc(CSc2nnc([C@@H]3CCCN3)o2)cc1Cl,13.8%
18,COc1cc(S(=O)(=O)NC2CCCC2)c(OC)cc1Cl,-1.45%
19,CC1CC(C)CN(C(=O)c2ccccc2Nc2ccc(SC(F)F)cc2)C1 (stereo not drawn),8.82%
20,c1ccc(-c2cnc(CN3CCN(c4ccccc4)CC3)o2)cc1,12.4%
21,CSc1cccc(NC(=S)NCCCN2CCN(c3ccc(F)cc3)CC2)c1,-3.39%
22,Cc1c(OCC(=O)N[C@@H](Cc2ccccc2)C(=O)O)ccc2c1oc(=O)c1ccccc12,-7.6%
23,O=S(=O)(c1cc(Cl)cc(Cl)c1O)N1CCC2(CC1)OCCO2,9.3%

row,SMILES,"hERG current change (%, negative = inhibition) at 1uM"
1,CCc1ccc(NC(=S)N2CCC(NC(=O)c3ccccc3)CC2)cc1,5.15%
2,O=C(CNC(=O)c1cccs1)NCC(=O)OCc1c(F)cccc1Cl,13.6%
3,Clc1ccccc1-c1nnc2sc(-c3cccs3)nn12,3.6%
4,COc1cc(/C=N/NC(=O)c2cccc(S(=O)(=O)N3CCCC3)c2)ccc1O,2.16%
5,O=c1[nH]nc(N/N=C/c2ccc(Cl)cc2Cl)c(=O)[nH]1,7.03%
6,COC(=O)CS(=O)(=O)c1ccsc1C(=O)Nc1ccc(F)cc1,11.8%
7,O=C(Nc1ncccc1O)c1cccc(S(=O)(=O)N2CCCC2)c1,5.92%
8,Cc1c(CCC(=O)O)c(=O)oc2cc(OCc3cccc(Cl)c3)ccc12,14.5%
9,Nc1ccc(C(=O)[O-])cc1.O.[Na+],8.37%
10,CC#CC(=O)N1CCC(C(=O)Nc2ccc(Oc3ccccc3)nc2)CC1,11.4%
11,OC(CN1CCN(C(c2ccccc2)c2ccccc2)CC1)c1ccccc1 (stereo not drawn),2.45%
12,CCC(C)(C)NC(=O)C(c1ccco1)N(C(=O)c1csnn1)c1cccc(F)c1 (stereo not drawn),2.6%
13,Cc1ccc(CN(c2ccc(C(=O)NCc3cccnc3)cc2)S(C)(=O)=O)cc1,1.51%
14,CCCn1c2ccccc2c2nc3ccccc3nc21,15.5%
15,CSc1ncccc1C(=O)OCC(=O)c1cccs1,9.58%
16,CCCc1nnc(-c2cc(OC)c(OC)c(OC)c2)o1,12%
17,CSc1nsc(/C=C/Nc2ccc(F)cc2)c1C#N,14.7%
18,Cc1ccc(NC(=O)COc2ccccc2CNC(C)(C)CC(C)(C)C)cc1,-4.81%
19,COc1ccc(C(=O)Cn2nnc(-c3ccccc3NC(=O)C(F)(F)F)n2)cc1,7.68%
20,COc1ccc2nc(NC(=O)CSc3nnc(C)n3N)sc2c1,9.34%
21,COc1ccc(N=C2SC(C(=O)N3CCN(c4ccc([N+](=O)[O-])cc4)CC3)CC(=O)N2C)cc1 (stereo not drawn),-22.4%
22,CC(Oc1ccc(Cl)cc1)c1ccnn1S(C)(=O)=O (stereo not drawn),10.5%
23,CSc1ccc(Cl)c(C(=O)NNC(=O)c2csc(N3CCOCC3)n2)c1,11.5%

row,SMILES,"hERG current change (%, negative = inhibition) at 1uM"
1,Cc1nc(-c2ccc(S(=O)(=O)N3CCN(c4ccccc4)CC3)cc2)co1,14.5%
2,Cc1nonc1OCCN1CCN(c2ccc([N+](=O)[O-])cc2)CC1,-100%
3,Nn1cnc2c(c1=O)C1(CCCCC1)Cc1ccccc1-2,2.28%
4,COc1ccccc1NC(=O)CNC(=O)c1ccc(Br)o1,15%
5,CSCc1ccc(C(=O)Nc2cc(C)cc(C)c2)cc1,7.3%
6,CCOCCCNS(=O)(=O)c1ccc2c(c1)OCCO2,-8.73%
7,FC(F)(F)c1nc(N2CCCC2)ncc1-c1nnnn1-c1ccc(Cl)cc1,8.31%
8,CCN(CC)c1ccc(CNc2nc3ccccc3n2C)cc1,-15.5%
9,CCCn1c(N2CCOCC2)nc2c1c(=O)[nH]c(=O)n2C,1.18%
10,CCOC(=O)Cc1nn(C)c(=O)c2ccccc12,11.2%
11,Cl.O=C(NCCOC(=O)c1ccc(C(=O)OCCNC(=O)c2cccnc2)s1)c1cccnc1,9.64%
12,CC(C)(C)N(Cc1ccccc1)C(=O)COC(=O)CNC(=O)c1ccco1,4.45%
13,O=C(NC(=S)Nc1ccc([N+](=O)[O-])cc1O)C1CCCCC1,9.74%
14,COc1ccc(NC(=O)c2ccc(F)cc2)cc1S(=O)(=O)Nc1cc(C)ccc1Br,3.82%
15,CC1CCCCN1C(=S)Nc1ccc2nc3n(c(=O)c2c1)CCCCC3 (stereo not drawn),-27.4%
16,O=C(CS(=O)(=O)Cc1ccccc1)NCC1CCCO1 (stereo not drawn),10.4%
17,CCCCNC(=O)COC(=O)CNC(=O)c1cc(Cl)cc([N+](=O)[O-])c1,12.8%
18,O=C(COc1coc(CN2CCc3ccccc3C2)cc1=O)Nc1ccc(F)cc1F,3.79%
19,Cc1c(C(c2cccs2)c2c(C)n(C)n(-c3ccccc3)c2=O)c(=O)n(-c2ccccc2)n1C,17.6%
20,O=C(CSc1nnc(NC(=O)c2ccccc2F)s1)Nc1ccccc1F,22.8%
21,C=CCOC(=O)C(=O)/C=C/c1coc2ccccc2c1=O,9.67%
22,O=C(CN1C(=O)CCSc2ccc(S(=O)(=O)N3CCCC3)cc21)Nc1ccccc1,9.81%
23,O=C(/C=C/c1ccoc1)c1ccccc1O,3.71%

row,SMILES,"hERG current change (%, negative = inhibition) at 1uM"
1,COc1cc(C(=O)O)c2c(c1C)OC(=O)c1c(C)cc(O)c(C=O)c1O2,22.5%
2,CCOc1ccccc1N(C)C(=O)c1sc2ncn(CC(=O)N3CCCCC3C)c(=O)c2c1C (stereo not drawn),7.39%
3,Cn1c(Cl)c(/C=N/OC(=O)C(C)(C)C)c2ccccc21,8.34%
4,O=C(Nc1ccncc1)Nc1cccc(F)c1,12.3%
5,Nc1ccc(C#Cc2ccc3sc4ccccc4c(=O)c3c2)cc1,11.5%
6,O=C(CN1C(=O)NC(Cc2c[nH]c3ccccc23)C1=O)Nc1ccc(F)c(F)c1F (stereo not drawn),1.82%
7,CCOc1ccc(CN(C)CC(=O)NCc2ccccc2)cc1,-82.3%
8,C/C(=N\N=C(N)N)c1ccc(C)c(C)c1,16%
9,CC(=O)c1ccc(NC(=O)CCc2nc3sc4c(c3c(=O)[nH]2)CCCC4)cc1,11%
10,CCOc1ccc(C(C)NC(=S)NC2CCCCC2)cc1 (stereo not drawn),-0.0905%
11,CCc1ccccc1N(C(=O)CNC(=O)c1ccco1)C(C(=O)NC1CCCC1)c1cccnc1 (stereo not drawn),22.7%
12,Cc1ccc2ccc3cccnc3c2n1,11.9%
13,CCO/C=C1/C(=O)N(c2ccc(OC)cc2)C(=O)c2ccccc21,14.6%
14,COc1cc(/C=C/C(=O)N2CCN(C(=O)/C=C/c3cc(OC)c(OC)c(OC)c3)CC2)cc(OC)c1OC,6.29%
15,CCOC(=O)c1cnn(Cc2ccccc2)c1N,13.7%
16,COc1cccc(C(=O)Nc2ccc(-c3nc4ccccc4o3)c(O)c2)c1,14%
17,O=C(/C=C/c1ccccc1Cl)Nc1ccc(-c2nnc3n2CCCCC3)cc1,5.92%
18,CCOc1ccc(-n2nnc3c(=O)n(C/C=C/c4ccccc4)cnc32)cc1,13%
19,Cn1cnnc1SCC(=O)N1CCN(C(=O)c2ccco2)CC1,9.85%
20,NC(=O)Cn1cc(C(=O)COc2ccccc2)c2ccccc21,12.4%
21,COc1ccc(CNc2ncc(-c3ccc(F)cc3)n2C)c2ccccc12.O=C(O)C(=O)O,7.04%
